To fix the notation:
B1: RNA binding protein NOB1 (protein, UniProt Q9ULX3 1-412)
chain: MAPVEHVVADAGAFLRHAALQDIGKNIYTIREVVTEIRDKATRRRLAVLPYELRFKEPLPEYVRLVTEFSKKTGDYPSLSATDIQVLALTYQLEAEFVGVSHLKQEPQKVKVSSSIQHPETPLHISGFHLPYKPKPPQETEKGHSACEPENLEFSSFMFWRNPLPNIDHELQELLIDRGEDVPSEEEEEEENGFEDRKDDSDDDGGGWITPSNIKQIQQELEQCDVPEDVRVGCLTTDFAMQNVLLQMGLHVLAVNGMLIREARSYILRCHGCFKTTSDMSRVFCSHCGNKTLKKVSVTVSDDGTLHMHFSRNPKVLNPRGLRYSLPTPKGGKYAINPHLTEDQRFPQLRLSQKARQKTNVFAPDYIAGVSPFVENDISSRSATLQVRDSTLGAGRRRLNPNASRKKFVKKR
B2: SAAL1 (protein, UniProt Q96ER3 1-474)
chain: MDRNPSPPPPGRDKEEEEEVAGGDCIGSTVYSKHWLFGVLSGLIQIVSPENTKSSSDDEEQLTELDEEMENEICRVWDMSMDEDVALFLQEFNAPDIFMGVLAKSKCPRLREICVGILGNMACFQEICVSISSDKNLGQVLLHCLYDSDPPTLLETSRLLLTCLSQAEVASVWVERIQEHPAIYDSICFIMSSSTNVDLLVKVGEVVDKLFDLDEKLMLEWVRNGAAQPLDQPQEESEEQPVFRLVPCILEAAKQVRSENPEWLDVYMHILQLLTTVDDGIQAIVHCPDTGKDIWNLLFDLVCHEFCQSDDPPIILQEQKTVLASVFSVLSAIYASQTEQEYLKIEKVDLPLIDSLIRVLQNMEQCQKKPENSAESNTEETKRTDLTQDDFHLKILKDILCEFLSNIFQALTKETVAQGVKEGQLSKQKCSSAFQNLLPFYSPVVEDFIKILREVDKALADDLEKNFPSLKVQT
B3: CDK5RAP3 (protein, UniProt Q96JB5 1-506)
chain: MEDHQHVPIDIQTSKLLDWLVDRRHCSLKWQSLVLTIREKINAAIQDMPESEEIAQLLSGSYIHYFHCLRILDLLKGTEASTKNIFGRYSSQRMKDWQEIIALYEKDNTYLVELSSLLVRNVNYEIPSLKKQIAKCQQLQQEYSRKEEECQAGAAEMREQFYHSCKQYGITGENVRGELLALVKDLPSQLAEIGAAAQQSLGEAIDVYQASVGFVCESPTEQVLPMLRFVQKRGNSTVYEWRTGTEPSVVERPHLEELPEQVAEDAIDWGDFGVEAVSEGTDSGISAEAAGIDWGIFPESDSKDPGGDGIDWGDDAVALQITVLEAGTQAPEGVARGPDALTLLEYTETRNQFLDELMELEIFLAQRAVELSEEADVLSVSQFQLAPAILQGQTKEKMVTMVSVLEDLIGKLTSLQLQHLFMILASPRYVDRVTEFLQQKLKQSQLLALKKELMVQKQQEALEEQAALEPKLDLLLEKTKELQKLIEADISKRYSGRPVNLMGTSL
B4: PRDX4 (protein, UniProt Q13162 1-271)
chain: MEALPLLAATTPDHGRHRRLLLLPLLLFLLPAGAVQGWETEERPRTREEECHFYAGGQVYPGEASRVSVADHSLHLSKAKISKPAPYWEGTAVIDGEFKELKLTDYRGKYLVFFFYPLDFTFVCPTEIIAFGDRLEEFRSINTEVVACSVDSQFTHLAWINTPRRQGGLGPIRIPLLSDLTHQISKDYGVYLEDSGHTLRGLFIIDDKGILRQITLNDLPVGRSVDETLRLVQAFQYTDKHGEVCPAGWKPGSETIIPDPAGKLKYFDKLN
B5: SEPT7 (protein, UniProt Q16181 1-437)
chain: MSVSARSAAAEERSVNSSTMVAQQKNLEGYVGFANLPNQVYRKSVKRGFEFTLMVVGESGLGKSTLINSLFLTDLYSPEYPGPSHRIKKTVQVEQSKVLIKEGGVQLLLTIVDTPGFGDAVDNSNCWQPVIDYIDSKFEDYLNAESRVNRRQMPDNRVQCCLYFIAPSGHGLKPLDIEFMKRLHEKVNIIPLIAKADTLTPEECQQFKKQIMKEIQEHKIKIYEFPETDDEEENKLVKKIKDRLPLAVVGSNTIIEVNGKRVRGRQYPWGVAEVENGEHCDFTILRNMLIRTHMQDLKDVTNNVHYENYRSRKLAAVTYNGVDNNKNKGQLTKSPLAQMEEERREHVAKMKKMEMEMEQVFEMKVKEKVQKLKDSEAELQRRHEQMKKNLEAQHKELEEKRRQFEDEKANWEAQQRILEQQNSSRTLEKNKKKGKIF
B6: PTS (protein, UniProt Q03393 1-145)
chain: MSTEGGGRRCQAQVSRRISFSASHRLYSKFLSDEENLKLFGKCNNPNGHGHNYKVVVTVHGEIDPATGMVMNLADLKKYMEEAIMQPLDHKNLDMDVPYFADVVSTTENVAVYIWDNLQKVLPVGVLYKVKVYETDNNIVVYKGE
B7: HPRT1 (protein, UniProt P00492 1-218)
chain: MATRSPGVVISDDEPGYDLDLFCIPNHYAEDLERVFIPHGLIMDRTERLARDVMKEMGGHHIVALCVLKGGYKFFADLLDYIKALNRNSDRSIPMTVDFIRLKSYCNDQSTGDIKVIGGDDLSTLTGKNVLIVEDIIDTGKTMQTLLSLVRQYNPKMVKVASLLVKRTPRSVGYKPDFVGFEIPDKFVVGYALDYNEYFRDLNHVCVISETGKAKYKA
B8: PRPF39 (protein, UniProt Q86UA1 1-669)
chain: MQNSHMDEYRNSSNGSTGNSSEVVVEHPTDFSTEIMNVTEMEQSPDDSPNVNASTEETEMASAVDLPVTLTETEANFPPEYEKFWKTVENNPQDFTGWVYLLQYVEQENHLMAARKAFDRFFIHYPYCYGYWKKYADLEKRHDNIKPSDEVYRRGLQAIPLSVDLWIHYINFLKETLDPGDPETNNTIRGTFEHAVLAAGTDFRSDRLWEMYINWENEQGNLREVTAIYDRILGIPTQLYSHHFQRFKEHVQNNLPRDLLTGEQFIQLRRELASVNGHSGDDGPPGDDLPSGIEDITDPAKLITEIENMRHRIIEIHQEMFNYNEHEVSKRWTFEEGIKRPYFHVKPLEKAQLKNWKEYLEFEIENGTHERVVVLFERCVISCALYEEFWIKYAKYMENHSIEGVRHVFSRACTIHLPKKPMVHMLWAAFEEQQGNINEARNILKTFEECVLGLAMVRLRRVSLERRHGNLEEAEHLLQDAIKNAKSNNESSFYAVKLARHLFKIQKNLPKSRKVLLEAIERDKENTKLYLNLLEMEYSGDLKQNEENILNCFDKAVHGSLPIKMRITFSQRKVEFLEDFGSDVNKLLNAYDEHQTLLKEQDSLKRKAENGSEEPEEKKAHTEDTTSSSTQMIDGDLQANQAVYNYSAWYQYNYQNPWNYGQYYPPPPT
B9: EBP1 (protein, UniProt Q9UQ80 1-394)
chain: MSGEDEQQEQTIAEDLVVTKYKMGGDIANRVLRSLVEASSSGVSVLSLCEKGDAMIMEETGKIFKKEKEMKKGIAFPTSISVNNCVCHFSPLKSDQDYILKEGDLVKIDLGVHVDGFIANVAHTFVVDVAQGTQVTGRKADVIKAAHLCAEAALRLVKPGNQNTQVTEAWNKVAHSFNCTPIEGMLSHQLKQHVIDGEKTIIQNPTDQQKKDHEKAEFEVHEVYAVDVLVSSGEGKAKDAGQRTTIYKRDPSKQYGLKMKTSRAFFSEVERRFDAMPFTLRAFEDEKKARMGVVECAKHELLQPFNVLYEKEGEFVAQFKFTVLLMPNGPMRITSGPFEPDLYKSEMEVQDAELKALLQSSASRKTQKKKKKKASKTAENATSGETLEENEAGD

Here are results for nine molecules from article PMC3542376.

These are yes or no findings as the source states them, for the method shown. Some binding calls cover weakened binding; strength is not graded here.

One test addresses PRMT6 185-375, LexA fusion (human) (UniProt Q96LA8). The experiment in a line: two-hybrid; pairwise mapping: EGY48 with LexA-PRMT6 full length or deletion mutants and each partner in pJG4-5; assayed as in the screen.
Consider B1, for which the binding result was “no binding”.
On the same count and under the same terms, the result for B2 reads “no binding”; that for B3, “no binding”.
Same read-out and setting: for B4 the value was “no binding”.
On the same count and under the same terms, for B5 the value was “no binding”; for B6, “no binding”.
In the case of B7, the binding result is “no binding”.
The same measure, in the same setting: for B8 the value was “no binding”.
On the same count and under the same terms, the result for B9 reads “no binding”.

In another test the target is PRMT6 full length (aa 1-375), LexA fusion (human) (UniProt Q96LA8). The description is as above.
In the case of B1, the binding result was “binds”.
As to B2, the binding result is given as “binds”.
The same measure, in the same setting: for B3 the value was “binds”; for B4, “binds”.
The same measure, in the same setting: for B5 the value was “binds”.
B6: the binding result is “binds”.
On the same count and under the same terms, for B7 the value was “binds”; for B8, “binds”.
With B9, the binding result was “binds”.

The next test deals with PRMT6 1-184, LexA fusion (human) (UniProt Q96LA8). The description is as above.
Turning to B1, the binding result was “binds”.
The same measure, in the same setting: for B2 the value was “binds”; for B3, “binds”; for B4, “binds”.
Take B5: the binding entry is “binds”.
For B6, the binding entry was “binds”.
In the case of B7, the binding entry is recorded as “binds”.
On the same count and under the same terms, for B8 the value was “binds”.
In the case of B9, the binding result is “binds”.

A further test deals with PRMT6 87-375, LexA fusion (human) (UniProt Q96LA8). The description is as above.
Turning to B1, the binding entry was “no binding”.
On the same count and under the same terms, the result for B2 reads “no binding”; that for B3, “no binding”.
Still for that read-out and setting: for B4 the value was “no binding”.
The same measure, in the same setting: for B5 the value was “no binding”.
As to B6, the binding entry is “no binding”.
As for B7, the binding result is “no binding”.
On the same count and under the same terms, for B8 the value was “no binding”.
Still for that read-out and setting: the result for B9 reads “no binding”.

Another test concerns the target PRMT6 1-86, LexA fusion (human) (UniProt Q96LA8). The test is described as above.
In the case of B1, the binding result is given as “binds”.
In the case of B2, the binding result is on record as “binds”.
For B3, the binding result is “binds”.
B4: the binding result is reported as “binds”.
On the same count and under the same terms, for B5 the value was “binds”; for B6, “binds”.
On the same count and under the same terms, the result for B7 reads “binds”.
Still for that read-out and setting: the result for B8 reads “binds”; that for B9, “binds”.

The target of the next test is PRMT6 full length (aa 1-375), LexA fusion (human) (UniProt Q96LA8). The experiment in a line: two-hybrid; library screen: LexA-PRMT6 (aa 1-375) as bait in S. cerevisiae EGY48, human fetal brain cDNA library in pJG4-5 as prey; Leu+ and beta-galactosidase filter assay; positives re-transformed and confirmed.
For B1, the binding result is “binds”.
Same read-out and setting: for B2 the value was “binds”; for B3, “binds”; for B4, “binds”.
Same read-out and setting: for B5 the value was “binds”.
The same measure, in the same setting: for B6 the value was “binds”; for B7, “binds”; for B8, “binds”.
As to B9, the binding result was “binds”.
